Results on 44 sequences are retold here after the supplement of paper PMC11417369.

± gives the standard deviation of the averaged measurements. The list shows a part of the results.

This assay deals with PfAP2-EXP AP2 domain (GST-tagged). Put plainly: gcPBM binding intensity (ln(normalized median fluorescence intensity)); higher = stronger DNA binding. A digest of the protocol: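 Plasmodium falciparum DNA-binding domains carrying a GST tag were expressed in E. coli and applied for 1 h, at about 25 μg on average, to an Agilent 4 × 180k array. The array held primer-extended double-stranded 36-bp intergenic genomic probes together with negative controls, and binding took place in 1× PBS with 1% milk, 0.2 mg/ml BSA, 0.5% salmon testes DNA and 0.03% Triton X-100. An Alexa488 anti-GST antibody detected bound protein, and the array was scanned at 488 nm. Binding intensity is taken as the highest Masliner-normalised natural-log median intensity across replicate spots of either probe orientation.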
Regarding “TTATATAAAGAATGTACACACAGAAATGCACCCACA [CACACA_site2282]”, the “gcPBM binding intensity (ln)” value was 9.49 ± 0.23.

In the case of “ATTAAATATGAGGGAACACACACATGATATATAAAT [CACACA_site8755]”, the “gcPBM binding intensity (ln)” value amounted to 8.94 ± 0.38.

With “TTATATTTATAAAGGTGTACCTTAAAATGATTTTAC [XGTACX_site3774]”, the “gcPBM binding intensity (ln)” value worked out at 8.19 ± 0.25.

Take “ATATATTATATTAATTGTACATAAAAAAGAGAAAAA [XGTACX_site3366]”: the “gcPBM binding intensity (ln)” value was 8.71 ± 0.48.

As for “AAAATTAAATAAAAATGTACAGAAATATTATATGAA [XGTACX_site5695]”, the “gcPBM binding intensity (ln)” value came to 8.76 ± 0.59.

Turning to “CCAAAAAATATATGTAGTACTACATTATTAAATATG [XGTACX_site5128]”, the “gcPBM binding intensity (ln)” value worked out at 8.93 ± 0.37.

Turning to “TTTTTTTTTTTTTCTTCACACACAGTACTACTATTT [CACACA_site8759]”, the “gcPBM binding intensity (ln)” value came out at 8.61 ± 0.49.

Consider “TTAGCTTTTTTTTAAACATGCAACTACTTGATCCAC [TGCATGCA_site1017]”, for which the “gcPBM binding intensity (ln)” value stood at 8.61 ± 0.32.

For the sequence “TATTTATTATTATGTACACACTATATTAAAACATAA [CACACA_site4549]”, the “gcPBM binding intensity (ln)” value amounted to 8.55 ± 0.15.

In the case of “AGTATACGCAGACACACACACACATATATATATATA [CACACA_site1735]”, the “gcPBM binding intensity (ln)” value was 10.2 ± 0.46.

For the sequence “TATGTGAATCCTAAGTGTACACATCTTACATATATA [XGTACX_site2506]”, the “gcPBM binding intensity (ln)” value amounted to 9.18 ± 0.41.

Consider “ATAAGATGATTAATTACACACTTTATAGGATATTTA [CACACA_site1711]”, for which the “gcPBM binding intensity (ln)” value was 8.09 ± 0.34.

On to “GGTATATGCATAAAGAGTACGTAACTTCTTTTTGTT [XGTACX_site6344]”, for which the “gcPBM binding intensity (ln)” value turned out to be 8.81 ± 0.28.

Turning to “AAATGTGTAAATATAATTAGTTTCACAAAACAAATA [GTGCAC_negctrl_site543]”, the “gcPBM binding intensity (ln)” value is 8.23 ± 0.4.

As for “TATATAATATTCTACACACCAACAACAAACATATAT [CACACA_site567]”, the “gcPBM binding intensity (ln)” value is 8.91 ± 0.67.

On to “ATATATATATTTATATGTACATAATATAAAATTTCT [XGTACX_site3720]”, for which the “gcPBM binding intensity (ln)” value came out at 9.155 ± 0.021.

For “ATATTCTGATTTTAGATGCACTTCGTTAACAAAATA [GTGCAC_site9958]”, the “gcPBM binding intensity (ln)” value amounted to 8.63 ± 0.34.

Consider “AAAAGAATAATAATTTATGTATATTAATTAAAGAAT [XGTACX_negctrl_site402]”, for which the “gcPBM binding intensity (ln)” value amounted to 8.34 ± 0.66.

“TTATATATATGTGTATGTACATATATATATATATAT [XGTACX_site1141]”: the “gcPBM binding intensity (ln)” value stood at 10.1 ± 0.32.

For “TATCATATATTATATGCACACATGTTTTTCAAGAAT [CACACA_site1892]”, the “gcPBM binding intensity (ln)” value was 8.88 ± 0.25.

For “AAACGTAACATATATATATATATATATAAGATATAT [CACACA_negctrl_site126]”, the “gcPBM binding intensity (ln)” value is 8.88 ± 0.13.

As for “AATGAATATATATAAATATATATATATATATATATA [CACACA_negctrl_site1494]”, the “gcPBM binding intensity (ln)” value worked out at 10 ± 0.43.

In the case of “ATAAATCTACACCGCACACAAAAACAACAAATATTA [CACACA_site5396]”, the “gcPBM binding intensity (ln)” value was determined as 8.64 ± 0.58.

As to “ATGTTATTACATAATTGTACATTTTGAGCAATTAAG [XGTACX_site4640]”, the “gcPBM binding intensity (ln)” value came to 8.28 ± 0.26.

Turning to “ATATTTGTATAAATTGCACACTTTATTTTTTTTAAG [CACACA_site1558]”, the “gcPBM binding intensity (ln)” value is 8.55 ± 0.42.

“ATACATAAAATTAAAACACACATTTGATTAAATACG [CACACA_site7088]”: the “gcPBM binding intensity (ln)” value worked out at 8.54 ± 0.39.

Turning to ATCAAGCGCAATGTGGTGCGTAAATTTTGTATTATA, the “gcPBM binding intensity (ln)” value is 8.74 ± 0.092.

Consider “GTCTAAGCTTATAGGCGTACACATGAATATGGATGT [XGTACX_site2439]”, for which the “gcPBM binding intensity (ln)” value is 8.77 ± 0.46.

Take “AAAGGATACAGACACACACACACATATATATATATA [CACACA_site906]”: the “gcPBM binding intensity (ln)” value came out at 10.1 ± 0.4.

In the case of “GGATTTATTATATATACACACATACATATATATATA [CACACA_site8669]”, the “gcPBM binding intensity (ln)” value came out at 9.84 ± 0.16.

Turning to “ATAAGAAAAAAGAACTGTACTAATAAAATATAAAAA [XGTACX_site3715]”, the “gcPBM binding intensity (ln)” value was found to be 8.71 ± 0.38.

For the sequence “ATTATATAATTGTCTTCACACACACCGATATATATA [CACACA_site8883]”, the “gcPBM binding intensity (ln)” value was found to be 8.93 ± 0.51.

Regarding “ATAATATATATACAAACACACAATTGTGTCCACATT [CACACA_site1747]”, the “gcPBM binding intensity (ln)” value turned out to be 8.94 ± 0.28.

In the case of “TGTACATATATATAATATATATATCATCATATTTTC [CACACA_negctrl_site1750]”, the “gcPBM binding intensity (ln)” value is 8.47 ± 0.38.

As for “ATTCACGTGTCTTAAAAAAAAAAAAAAGAAAAAAAG [CACACA_negctrl_site573]”, the “gcPBM binding intensity (ln)” value was 8.34 ± 0.39.

“ATATATATATATATATGTACATATATATACATATAT [XGTACX_site6987]”: the “gcPBM binding intensity (ln)” value is 10.1 ± 0.43.

Take “TATATATATATATCCACACACATACAGATATTAAGA [CACACA_site4214]”: the “gcPBM binding intensity (ln)” value was determined as 10 ± 0.29.

For the sequence “AGTATACGAATAAAATGTACATACAAATTGTTGTAA [XGTACX_site36]”, the “gcPBM binding intensity (ln)” value was 8.67 ± 0.41.

With “TCCTTAAAATATATCACACATTTCGTTCATTTATAA [CACACA_site4346]”, the “gcPBM binding intensity (ln)” value turned out to be 8.72 ± 0.38.

Turning to “AATATGATTATTACCCGTACATATTACCTTATGGTA [XGTACX_site1714]”, the “gcPBM binding intensity (ln)” value came out at 8.52 ± 0.3.

Take “AATGATATTATCTCTTCACACACTCACATACAGACA [CACACA_site8335]”: the “gcPBM binding intensity (ln)” value amounted to 8.64 ± 0.41.

Turning to “TTTTAAAAAAATAAAAAATAATAAAAAAAATAAAAA [CACACA_negctrl_site1693]”, the “gcPBM binding intensity (ln)” value is 8.39 ± 0.26.

Turning to “TCAGGAATATAAAGTGCACACATAATTTGGGGGCAA [CACACA_site7974]”, the “gcPBM binding intensity (ln)” value stood at 9.62 ± 0.19.

For “TATATAAGGATATATACACACATATAGGTATTTATA [CACACA_site7092]”, the “gcPBM binding intensity (ln)” value stood at 8.34 ± 0.47.
